The list shows a part of the results. Bounds are passed on as bounds.

Sequences and labels used below:
B1: PhoQ; a variant is named by its letters at X, in order, P23837 (parent)
chain: MKKLLRLFFPLSLRVRFLLATAAVVLVLSLAYGMVALIGYSVSFDKTTFRLLRGESNLFYTLAKWENNKLHVELPENIDKQSPTMTLIYDENGQLLWAQRDVPWLMKMIQPDWLKSNGFHEIEADVNDTSLLLSGDHSIQQQLQEVREDDDDAEMTHSVAVNVYPATSRMPKLTIVVVDTIPVELKSSYMVWSWFIYVLSANLLLVIPLLWVAAWWSLRPIEALAKEVRELEEHNRELLNPATTRELTSLVRNLNRLLKSERERYDKYRTTLTDLTHSLKTPLXXLQXXLRSLRSEKMSVSDAEPVMLEQISRISQQIGYYLHRASMRGGTLLSRELHPVAPLLDNLTSALNKVYQRKGVNISLDISPEISFVGEQNDFVEVMGNVLDNACKYCLEFVEISARQTDEHLYIVVEDDGPGIPLSKREVIFDRGQRVDTLRPGQGVGLAVAREITEQYEGKIVAGESMLGGARMEVIFGRQHSAPKDE

The variants in this assay derive from B1. The assay can be described thus: enrichment ratio after two sorts for PhoP signalling (ratio (wild type AVST 3.29)); higher = more functional. Particulars: with PhoP (E. coli).
As for LDTL, the enrichment ratio was at most 0.25.
Under ATFD stands at most 0.25.
For QGVQ the value was at most 0.25; for TDWG, at most 0.25.
For IWRH the value was at most 0.25.
Take NEDL: the enrichment ratio is at most 0.25.
Regarding GYDF, the enrichment ratio is at most 0.25.
As to DVHM, the enrichment ratio is at most 0.25.
For MRMN the value was at most 0.25; for NRVK, at most 0.25.
Under MLHD stands at most 0.25.
For RQWG the value was at most 0.25; for FYCQ, at most 0.25; for GLLE, 0.585.
Consider FSML, for which the enrichment ratio was found to be 12.7.
For the variant SIRG, the enrichment ratio is at most 0.25.
For IWDG the value was at most 0.25; for HSND, at most 0.25.
Under YDIW stands at most 0.25; under LDED, at most 0.25.
FWVC: the enrichment ratio is at most 0.25.
Take QTTF: the enrichment ratio was at most 0.25.
As for FMKF, the enrichment ratio was at most 0.25.
For WDVK, the enrichment ratio is at most 0.25.
In the case of MVLY, the enrichment ratio is at most 0.25.
For the variant EQWF, the enrichment ratio is at most 0.25.
With KRST, the enrichment ratio was at most 0.25.
Under THKG stands at most 0.25; under HPAV, at most 0.25.
Under DWDF stands at most 0.25.
For PNVG, the enrichment ratio is at most 0.25.
For GQRN the value was at most 0.25; for ECML, at most 0.25; for TSQP, at most 0.25.
Under PETH stands at most 0.25; under AGCM, 13.6; under YCLV, 3.43.
Turning to YNGT, the enrichment ratio is at most 0.25.
With ETYL, the enrichment ratio was at most 0.25.
Consider DLHT, for which the enrichment ratio was at most 0.25.
Under GRPT stands at most 0.25; under TKWH, at most 0.25.
RKGM: the enrichment ratio is at most 0.25.
Under GGHQ stands at most 0.25.
For EVLV the value was at most 0.25.
Under LGDI stands at most 0.25; under RLWQ, at most 0.25; under AEGC, 2.22.
On to EYSL, for which the enrichment ratio is at most 0.25.
Regarding LAIN, the enrichment ratio is at most 0.25.
In the case of MQWI, the enrichment ratio is 14.4.
Turning to NTSQ, the enrichment ratio is at most 0.25.
Turning to FCQR, the enrichment ratio is at most 0.25.
As for LICH, the enrichment ratio is at most 0.25.
Turning to AKTT, the enrichment ratio turned out to be 3.25.
Consider GTMK, for which the enrichment ratio was at most 0.25.
For VCLW the value was at most 0.25.
KFEI: the enrichment ratio was at most 0.25.
On to KVMI, for which the enrichment ratio was at most 0.25.
Turning to WRDH, the enrichment ratio is at most 0.25.
In the case of PHKQ, the enrichment ratio was at most 0.25.
Take YSCC: the enrichment ratio is at most 0.25.
For the variant LNTQ, the enrichment ratio was at most 0.25.
Under SASP stands at most 0.25.
Under KMIR stands at most 0.25; under DFEL, at most 0.25; under NGTS, at most 0.25.
Under PAYI stands at most 0.25; under EGQC, at most 0.25; under VMKA, at most 0.25.
On to WLTT, for which the enrichment ratio was at most 0.25.
For HWIM, the enrichment ratio is at most 0.25.
Under ILYV stands at most 0.25; under ADWL, at most 0.25; under RCRT, at most 0.25.
With SWLD, the enrichment ratio was at most 0.25.
Under SGNF stands at most 0.25; under TKGR, at most 0.25.
As for IHCL, the enrichment ratio is at most 0.25.
For GNGY the value was at most 0.25; for SEAC, 19.8; for TAPV, at most 0.25.
For the variant DLPS, the enrichment ratio is at most 0.25.
Under IFRF stands at most 0.25; under MWVH, at most 0.25; under LLSG, at most 0.25.
Turning to YPVY, the enrichment ratio is at most 0.25.
For VRTS the value was at most 0.25.
For SSHF the value was at most 0.25; for PNCP, 0.425; for MDHM, at most 0.25.
Under DRKV stands at most 0.25.
For RTNW, the enrichment ratio was at most 0.25.
Consider GDWT, for which the enrichment ratio was at most 0.25.
Under EPCP stands at most 0.25; under ACIM, 30.7.
Turning to RRPC, the enrichment ratio is at most 0.25.
PYLT: the enrichment ratio was at most 0.25.
Regarding GKHF, the enrichment ratio was at most 0.25.
Take DGEV: the enrichment ratio was at most 0.25.
For LEKK the value was at most 0.25; for VINI, at most 0.25; for YGEA, at most 0.25.
Consider VKAK, for which the enrichment ratio was at most 0.25.
Under ILEF stands at most 0.25; under TKLK, at most 0.25; under RPNL, at most 0.25.
Consider TVYH, for which the enrichment ratio is at most 0.25.
Turning to NHGD, the enrichment ratio was at most 0.25.
For FLIE the value was at most 0.25; for TIWN, at most 0.25; for NIHH, at most 0.25.
NSIG: the enrichment ratio was at most 0.25.
Under GLHN stands at most 0.25; under TIKM, at most 0.25.
For GTYS the value was at most 0.25; for GLCC, at most 0.25; for KMGC, at most 0.25.
Under RYWY stands at most 0.25; under AIWP, at most 0.25; under ILGH, at most 0.25.
For LFQG, the enrichment ratio is at most 0.25.
For RCYC the value was at most 0.25; for IHMT, at most 0.25.
Under YEIY stands at most 0.25.
As to YWYS, the enrichment ratio is at most 0.25.
Regarding AMPN, the enrichment ratio was at most 0.25.
In the case of IYCL, the enrichment ratio is at most 0.25.
Under SCTC stands 7.94; under EIKV, at most 0.25.
Regarding SMWS, the enrichment ratio was at most 0.25.
For LASL the value was at most 0.25; for FTPH, at most 0.25; for SYGD, at most 0.25.
In the case of SNNE, the enrichment ratio amounted to 3.95.
Under LNYW stands at most 0.25.
For HAIV the value was at most 0.25; for RGSA, at most 0.25.
Under VEWR stands at most 0.25.
As to HHDV, the enrichment ratio is at most 0.25.
For FQSH the value was at most 0.25.
Under TFDM stands at most 0.25; under HGKS, at most 0.25.
Turning to VSQH, the enrichment ratio was at most 0.25.
Under LHWA stands 0.535; under GTWD, at most 0.25; under YQIF, at most 0.25.
Take NFED: the enrichment ratio was at most 0.25.
On to MGYV, for which the enrichment ratio worked out at 13.4.
For the variant ETFK, the enrichment ratio was at most 0.25.
Consider STSP, for which the enrichment ratio was at most 0.25.
Under DAHS stands at most 0.25; under EAHQ, at most 0.25.
With DCNV, the enrichment ratio is at most 0.25.
For LPWF the value was at most 0.25; for KNDP, at most 0.25.
For TPKV the value was at most 0.25.
Under RTHM stands at most 0.25.
Take MSYQ: the enrichment ratio is 5.85.
Under KYDL stands at most 0.25; under MTSY, at most 0.25; under KGWT, at most 0.25.
Under WQHR stands at most 0.25; under FMCG, at most 0.25; under WKTA, at most 0.25.
For DKRS the value was at most 0.25.
As for EKMA, the enrichment ratio is at most 0.25.
For LPDD, the enrichment ratio is at most 0.25.
As for KMDL, the enrichment ratio was at most 0.25.
For FESN the value was at most 0.25; for NLPK, at most 0.25.
For QTKC the value was at most 0.25.
As to LQPN, the enrichment ratio is at most 0.25.
As to FNTK, the enrichment ratio is at most 0.25.
As to AMGF, the enrichment ratio was at most 0.25.
Under QLSC stands at most 0.25; under MEQN, at most 0.25; under PQVT, at most 0.25.
Take TEQR: the enrichment ratio is 4.96.
For FTWR the value was at most 0.25.
Regarding WYMS, the enrichment ratio was at most 0.25.
As to FCNY, the enrichment ratio was at most 0.25.
For SRLT the value was at most 0.25.
On to LRWQ, for which the enrichment ratio is at most 0.25.
For VYNQ the value was at most 0.25.
On to AKFP, for which the enrichment ratio is at most 0.25.
Under DDRC stands at most 0.25; under KLLI, at most 0.25.
Under KTEM stands at most 0.25; under HDTI, at most 0.25.
As for GLYM, the enrichment ratio was at most 0.25.
Under EVQF stands 3.3.
As to PPFY, the enrichment ratio is at most 0.25.
For VYPS the value was at most 0.25; for AFCL, 0.756.

(Values after a collection of fitness landscapes (doi:10.1126/science.1257360).)
